The other results are listed elsewhere or left out.

In this experiment the target is T1, OsWOX13 (Oryza sativa, UniProt Q5QMM3 1-267).
T1 sequence: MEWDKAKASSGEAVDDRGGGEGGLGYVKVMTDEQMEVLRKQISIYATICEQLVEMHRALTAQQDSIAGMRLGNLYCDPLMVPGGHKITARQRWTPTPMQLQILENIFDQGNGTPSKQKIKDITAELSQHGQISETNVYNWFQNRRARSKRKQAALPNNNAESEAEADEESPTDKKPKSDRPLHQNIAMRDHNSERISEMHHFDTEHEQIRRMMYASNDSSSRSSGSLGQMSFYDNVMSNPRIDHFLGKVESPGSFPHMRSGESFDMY
Briefly: protein-binding microarray (RPBM); PBS, 2% BSA, 51.3 ng/ul salmon testes DNA, 50 uM zinc acetate, 200 nM TF, 25 C, 1 h; high values mean tight binding. The following applies: protein: recombinant; tags: N-terminal polyhistidine and DsRed monomer fusion (pET32a); label: CyDye5-dUTP incorporated in the synthesized complementary strand; 3' TTTTT single-stranded linker to array surface; dsDNA, one strand shown. The method in brief:
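Polyhistidine-tagged DsRed fusions of transcription factors, joined at the N-terminus, were expressed in E. coli BL21-CodonPlus and isolated on Ni–NTA. They were incubated at 200 nM for 1 h at 25 °C on a custom Agilent array, double-stranded and BSA-blocked, in PBS with 2% BSA, salmon testes DNA and 50 µM zinc acetate. The binding signal is per-feature fluorescence intensity (arbitrary units) read on an Axon 4000B scanner after washing.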
Take “GCCAATTAACCAATCGGCGTCGTCAGGCCTCTCGCGTGTGCGGAGTCACCTAGTGCAG”: the binding signal was 11200 fluorescence intensity (a.u.). Regarding “TTACGCCTATCATGTATTTGATTTGCATAGAAGCTGTTTACGGAGTCACCTAGTGCAG”, the binding signal is 24400 fluorescence intensity (a.u.). Consider “AATTGATTTGGATTAATGGATACAACTTCACTCATATTCTCGGAGTCACCTAGTGCAG”, for which the binding signal is 32600 fluorescence intensity (a.u.). Take “CTATCCAATAATTTTGCCAATTAGCAAATACTAATTGATTCGGAGTCACCTAGTGCAG”: the binding signal is 29200 fluorescence intensity (a.u.).

In the case of “CGTGTGACTGTTGCCGTGATGGTTTTGATGTTTGTTTTGGCGGAGTCACCTAGTGCAG”, the binding signal is 10200 fluorescence intensity (a.u.). The figure for “GGCCACTTTAATTGGTCCTGGAATGAATATTAGACTCTCCCGGAGTCACCTAGTGCAG” is 5890 fluorescence intensity (a.u.). For the sequence “GTTAATGGATATACGGAAGGAAGTGCAGTGCCCTATATGCCGGAGTCACCTAGTGCAG”, the binding signal is 8760 fluorescence intensity (a.u.). Turning to “CTCTAATCCATTGATCAATCATCGACACCTCACGTTACAACGGAGTCACCTAGTGCAG”, the binding signal was 29000 fluorescence intensity (a.u.). Regarding “GGATTACCAAATTGGTTGGTTGAGCTCTGTCCTTGACTATCGGAGTCACCTAGTGCAG”, the binding signal is 5840 fluorescence intensity (a.u.).

As for “ACAAATTTTCGGAGAGATTATACGTCTGTTGATGCTTAAGCGGAGTCACCTAGTGCAG”, the binding signal was 4120 fluorescence intensity (a.u.). With “CTGCCTAATTTCAGAAAATTATGTGTTCACCAGATTTAAGCGGAGTCACCTAGTGCAG”, the binding signal was 12200 fluorescence intensity (a.u.). “CTAGATTATCACCGGCTAGCTTCTCCAACCCCAACCAAAGCGGAGTCACCTAGTGCAG”: the binding signal is 5460 fluorescence intensity (a.u.). Consider “TAGGATAGATAATTGAGTATCCTTTAGCGGTTCAGCAACACGGAGTCACCTAGTGCAG”, for which the binding signal is 21900 fluorescence intensity (a.u.). Under “TTCATAATTTATTATATTTTCTCCATCATTTGAGACTATTCGGAGTCACCTAGTGCAG” stands 12500 fluorescence intensity (a.u.). Regarding “CGTAGTGACGTGGTTAAATTAATCAAGATTGAGTTTTGTGCGGAGTCACCTAGTGCAG”, the binding signal was 12700 fluorescence intensity (a.u.). As to “AAAGGCCGTGATTGCCAGGGGTGTGAAGGAAATTCCCAATCGGAGTCACCTAGTGCAG”, the binding signal is 9900 fluorescence intensity (a.u.).

Turning to “TGAGCTGTCAATTATTTGGGCCAAACACTACATTATGAGGCGGAGTCACCTAGTGCAG”, the binding signal is 14300 fluorescence intensity (a.u.). Regarding “TTTAAATTCTACAAATCAACTTAGTCACTGTTTGGCATATCGGAGTCACCTAGTGCAG”, the binding signal was 4950 fluorescence intensity (a.u.). Under “ATAAATTATTCACTGTTGACACTTAAGGATTTGACTTTACCGGAGTCACCTAGTGCAG” stands 9520 fluorescence intensity (a.u.); under “GTCTAATTAATCTGTCATTAGCAAATATTTATTGTAGAATCGGAGTCACCTAGTGCAG”, 35100 fluorescence intensity (a.u.); under “CTTGAATGAACGTTTAAATGACAAGAAACAAGAATGAACACGGAGTCACCTAGTGCAG”, 5160 fluorescence intensity (a.u.). On to “TGCAGTTGTTAGGCCACCTTGATTTGATGTAGATATTAGCCGGAGTCACCTAGTGCAG”, for which the binding signal was 3270 fluorescence intensity (a.u.). Turning to “TTAAACTTAATATATTAACGTGTAATCTTTTACGCGTTCACGGAGTCACCTAGTGCAG”, the binding signal is 8860 fluorescence intensity (a.u.). On to “GTACCATAATTTATCACAGTGAAATGACTAATGATCTCACCGGAGTCACCTAGTGCAG”, for which the binding signal was 11400 fluorescence intensity (a.u.). As for “AAAATTTAAATTTTAGCTGATAAGTATAATTGTTTATGGTCGGAGTCACCTAGTGCAG”, the binding signal was 24600 fluorescence intensity (a.u.). For “GATGAATTAATTAGGCTTAATAAATTAATCTCGTAGTTTACGGAGTCACCTAGTGCAG”, the binding signal is 16600 fluorescence intensity (a.u.). Under “CTATCGTTATTTACACGTGATTTAAATAGTTATGAATTTTCGGAGTCACCTAGTGCAG” stands 3700 fluorescence intensity (a.u.); under “CTCAAAATCATAATTGTTCCGATTAAATTAAGAACCGGTTCGGAGTCACCTAGTGCAG”, 15300 fluorescence intensity (a.u.). For “TTTCACTCACTGACAGCATATATATTTGTAGTCATTGTTTCGGAGTCACCTAGTGCAG”, the binding signal was 5010 fluorescence intensity (a.u.). Turning to “CCAAACCAATCAAACGCATTCTATCCTAGTTGGCATAACCCGGAGTCACCTAGTGCAG”, the binding signal is 5440 fluorescence intensity (a.u.).

On to “GTGACAGTGACACAAGTAACAGCATGATGATGGAGCACTGCGGAGTCACCTAGTGCAG”, for which the binding signal is 5090 fluorescence intensity (a.u.). As for “AGATGATGTGACTGAAAAGTTGTGTATGTATGACAGATTGCGGAGTCACCTAGTGCAG”, the binding signal was 13400 fluorescence intensity (a.u.). The figure for “AGTGATTAATGAGACAAATAGTACTTTATTGTGACAAGTACGGAGTCACCTAGTGCAG” is 30900 fluorescence intensity (a.u.); for “TCTGGTTTTGTAATTAGGGGACGATTTTGTATCTCGATGACGGAGTCACCTAGTGCAG” it is 3760 fluorescence intensity (a.u.); for “CGACCTGATTCTGATTATAAAATTTGGGTTAGGATATGGGCGGAGTCACCTAGTGCAG” it is 9930 fluorescence intensity (a.u.). Regarding “GATTAACATTGCCAATCTTCCTAAGCTGCCGTGTTTCGGACGGAGTCACCTAGTGCAG”, the binding signal is 7560 fluorescence intensity (a.u.). For the sequence “GCATTATTAATTAAATATTTATTACTATTAAAACTTGAAACGGAGTCACCTAGTGCAG”, the binding signal is 16400 fluorescence intensity (a.u.).

Turning to “CATAAATAATTGTATTCATTTGCTCGTTCTTACCTTCACACGGAGTCACCTAGTGCAG”, the binding signal is 18600 fluorescence intensity (a.u.).

As to “AATTAAGGTGTCTAATTATATAGATAGATACATAATTCCCCGGAGTCACCTAGTGCAG”, the binding signal was 10800 fluorescence intensity (a.u.). As for “TTCTGGAATTGAATTGAAGTCTCTTCCATTTGTTCCATTGCGGAGTCACCTAGTGCAG”, the binding signal is 13100 fluorescence intensity (a.u.). In the case of “TCTTCGTCTCTTTCTAATCATACACATTTAACAGGGAAGCCGGAGTCACCTAGTGCAG”, the binding signal was 10600 fluorescence intensity (a.u.).

In the case of “GGGTAAAATTTGATATAGATATGAGTTACCTATTATCCTCCGGAGTCACCTAGTGCAG”, the binding signal is 3690 fluorescence intensity (a.u.).

For the origin of these results see paper PMC7819943, “Rice protein-binding microarrays: a tool to detect cis-acting elements near promoter regions in rice”.
